Assay results as given in PubChem BioAssay AID1030 (National Center for Advancing Translational Sciences (NCATS), 2008).
The whole screen tested about 220,000 compounds, of which about 16,000 (7.3%) were called active. The inconclusive results got no clear call from the source; some entries with a clear call stand among them for comparison. Calls follow the shape of the dose curve; as a rule, active = well fitted inhibition curve with a large enough effect (not every such curve was filed as active); inconclusive = small, poorly fitted or top-dose-only effect, or another doubt; inactive = no such curve, though single readings can be large or run the other way. Potencies of inconclusive entries are doubtful fits and often do not repeat.

Biological target: Aldehyde dehydrogenase 1A1 (Homo sapiens) (UniProt P00352)
Test: qHTS Assay for Inhibitors of Aldehyde Dehydrogenase 1 (ALDH1A1);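 as to activity, negative = inhibition: plate controls were no enzyme wells and a reference inhibitor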
Conditions: Purified ALDH1A1, NADH fluorescence, propionaldehyde substrate; series mostly up to 75.3 µM
Potency is read from the fitted curve at half-maximal effect; tags tell the direction and shape of the fitted curve.

Sequence of UniProt P00352 (P00352 whole entry, looked up): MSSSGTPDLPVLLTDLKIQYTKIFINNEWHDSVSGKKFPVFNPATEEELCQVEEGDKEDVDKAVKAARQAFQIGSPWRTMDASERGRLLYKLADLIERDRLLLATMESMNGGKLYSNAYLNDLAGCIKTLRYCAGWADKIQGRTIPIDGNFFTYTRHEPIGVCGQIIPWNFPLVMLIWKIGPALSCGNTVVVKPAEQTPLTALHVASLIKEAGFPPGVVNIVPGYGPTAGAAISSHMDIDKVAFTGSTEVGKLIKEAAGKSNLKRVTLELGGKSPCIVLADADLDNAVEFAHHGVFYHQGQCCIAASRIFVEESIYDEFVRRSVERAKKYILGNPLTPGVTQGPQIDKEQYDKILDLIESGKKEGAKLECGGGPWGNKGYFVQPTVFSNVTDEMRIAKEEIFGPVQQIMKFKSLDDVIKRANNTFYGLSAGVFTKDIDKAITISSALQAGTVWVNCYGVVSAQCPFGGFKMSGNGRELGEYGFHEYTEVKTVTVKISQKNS

Potency, active:
O=C(C1CCCN(Cc2ccccc2)C1)N1CCCCC1 (stereo not drawn) 20 µM
Cc1cccc(NC(=O)CCS(=O)(=O)c2cccc3nsnc23)c1C 25.1 µM
CC(Cl)C(=O)NNc1cccc(Cl)n1 (stereo not drawn) 20 µM
Cn1c(SCC(=O)c2ccccc2)nnc1-c1cnccn1 20 µM
O=C(O)C1CCCN1C(=O)c1cncc(Br)c1 (stereo not drawn) 20 µM
CCN(CC)S(=O)(=O)c1cc(NS(=O)(=O)c2cc(Cl)ccc2Cl)ccc1C 15.8 µM
Cc1c(Cc2ccccc2)sc(N)c1C(N)=O 15.8 µM
Cn1c(=O)c2c(nc(Br)n2CC(=O)C23CC4CC(CC(C4)C2)C3)n(C)c1=O 11.2 µM
O=C(NCc1cccnc1)c1cn(-c2ccccc2)nc1-c1cccs1 3.98 µM
Cc1cccc(NC(=S)NNC(=O)c2cc3c(s2)CCC(C)C3)c1C (stereo not drawn) 6.31 µM

Potency, inactive:
CCOC(=O)CN1C=C(c2ccc3ccccc3n2)C(C[N+](=O)[O-])c2ccccc21 (stereo not drawn)
O=C(N/N=C/c1ccc2c(c1)OCO2)c1cc(-c2ccncc2)nc2ccccc12
CCn1c(SCC#N)nc2c(c1=O)C1(CCCC1)Cc1ccccc1-2
CCN1CCN(C(=S)c2ccc(Br)cc2)CC1
CCc1ccc(NCCC(=O)c2ccc(Br)cc2)cc1
Cc1noc(C)c1C(=O)N1CCC[C@@]2(CCN(c3ccccn3)C2)C1
Cc1cc(C)cc(NC(=S)/N=C(\N)Nc2nc(C)c3ccccc3n2)c1
N#Cc1cn(OCc2ccccc2)c(=O)[nH]c1=O
N#CCCN(CCC#N)C(=O)c1ccc2c(c1)OCO2
CCOC(=O)C1CCN(C(=O)CSc2nccc(C)n2)CC1
Nc1n[nH]c(CO)n1
Cc1ccc(OCC(=O)NNC(=O)CSc2ncnc3sc(C)c(C)c23)cc1
O=C1CCCC2=C1C(c1ccncc1)Nc1ccccc1N2 (stereo not drawn)
Cc1ccc(/C=C2\Oc3c(ccc(O)c3CN3CCN(C)CC3)C2=O)cc1
O=C(O)CC1(CC(=O)Nc2ccccc2C(=O)c2ccccc2)CCCC1
CCOc1ccc(OCC)c(NC(=O)c2[nH]c(C)c(C(C)=O)c2C)c1
CC(C)CC(COCc1cccc(Cl)c1)N1CCN(C(=O)c2cccc(C(F)(F)F)c2)CCC1=O (stereo not drawn)
COc1ccccc1CCNC(=O)c1ccc(C)o1
CCOC(=O)CSc1nc(-c2ccccc2)nc2c1oc1ccccc12
Cc1nnsc1C(=O)NNC(=O)c1ccc(C(F)(F)F)cc1
CCC(=O)Nc1ccc(OC)cc1OC
O=C(NCCCN1CCOCC1)c1ccc(Cc2nc3ccccc3[nH]2)cc1
COc1ccc(C2C(C(=O)N3CCCCC3)CCC(=O)N2c2cc(OC)c(OC)c(OC)c2)cc1 (stereo not drawn)
Oc1c(Br)cc(Cl)cc1C=Nc1ccc(N2CCOCC2)cc1
N/C(=N\OC(=O)COc1ccc2ccccc2c1)c1ccncc1
CC(C)Oc1ccc(C(=O)NCc2cccs2)cc1

Potency, inconclusive:
Cc1cccc(NC(=O)c2cc(N3CCOCC3)nc3ccccc23)c1 35.5 µM [inhibitor, single point]
O=C(O)CCc1ccc(-c2ccccc2)n1CC(=O)O 35.5 µM [inhibitor, single point]
CCCC(=O)N(CCc1ccccc1)Cc1nc2ccccc2c(=O)[nH]1 44.7 µM [inhibitor, single point]
COc1cccc(OCc2nnc(SCC(=O)OC3CCCCC3)n2C)c1 17.8 µM [inhibitor, partial curve]
CC(C)c1nnc(NC(=O)CCC(=O)N2CCN(c3ccccn3)CC2)s1 35.5 µM [inhibitor, single point]
Cc1nc2c(-c3ccc(F)cc3)cnn2c2c1CCC2 37.7 µM [inhibitor, single point]
COCCn1c(=O)c(-c2cn(C)c3ccccc23)nc2cnc(N3CCNCC3)nc21 23.8 µM [inhibitor, partial curve]
COCc1[nH]nc2c1C(c1cc(OC)c(O)c(OC)c1)C(C#N)=C(N)O2 (stereo not drawn) 31.6 µM [inhibitor, single point]
Cc1sc2nc(C(C)C)nc(SCC(=O)N3CCN(C(=O)c4ccco4)CC3)c2c1C 14.1 µM [inhibitor, partial curve, poor fit]
CCN(Cc1ccncc1)C(=O)CCc1nnc(CCC2CCCCC2)o1 39.8 µM [inhibitor, single point]
COc1ccc(/C=C/c2nnc(NC(=O)c3ccco3)s2)cc1 31.6 µM [inhibitor, partial curve]
Cn1c(=O)c2c(nc(Oc3ccc4ccccc4c3)n2C)n(C)c1=O 7.94 µM [inhibitor, partial curve]
COc1ccc(CCNC(=O)CSc2nc3ccccc3o2)cc1 44.7 µM [inhibitor, single point]
O=C(NNC(=O)C1CCN(S(=O)(=O)c2ccc(Cl)cc2)CC1)c1ccccc1 39.8 µM [inhibitor, single point]
COc1ccc(OC)c2sc(NC(=O)C3=COCCO3)nc12 35.5 µM [inhibitor, single point]
Cc1ccc(-n2nc3c(c2NC(=O)c2c(-c4ccccc4Cl)noc2C)CS(=O)(=O)C3)c(C)c1 35.5 µM [inhibitor, single point]
O=C(Nc1cccn(Cc2ccc(F)cc2)c1=O)NC1CCCCC1 28.2 µM [inhibitor, partial curve]
c1ccc(-c2cn3c(n2)-c2ccccc2C3)cc1 35.5 µM [inhibitor, single point]
COc1ccc(-c2cnc(NCc3cc4c(cc3[N+](=O)[O-])OCO4)n2C)cc1 22.4 µM [inhibitor, partial curve]
COc1cc2c(C(=O)O)c(C)n(CC(C)C)c2c2ccccc12 35.5 µM [inhibitor, single point]
O=C(Cc1ccccc1[N+](=O)[O-])NC1CC1 35.5 µM [inhibitor, single point]
O=C(CCC(=O)c1cccs1)Nc1nnc(C2CC2)s1 39.8 µM [inhibitor, single point]
O=C(NC1CCCCC1)N1CCc2[nH]c3ccccc3c2C1 39.8 µM [inhibitor, single point]
O=C(O)CCC(=O)OCC1CCCO1 (stereo not drawn) 0.501 µM [inhibitor, single point]
COc1ccc2[nH]c(=O)c(CN(Cc3cccs3)S(=O)(=O)c3c(C)ccc4nsnc34)cc2c1 25.1 µM [inhibitor, single point]
COC(=O)/C(=C\C(=O)c1ccccc1)Nc1ccc(OC)cc1 31.6 µM [inhibitor, single point]
C/C=C(\C)C(=O)OC1C(OC(=O)C2(C)OC2C)c2cc3ccc(=O)oc3cc2OC1(C)C (stereo not drawn) 35.5 µM [inhibitor, single point]
CCC(=O)c1ccc(O)c(CC=C(C)C)c1 1.41 µM [inhibitor, full curve, poor fit]
NS(=O)(=O)c1ccc(NC(=O)CN2CCCN(S(=O)(=O)c3ccc(F)cc3)CC2)cc1 39.8 µM [inhibitor, single point]
Cc1cc(NCc2ccccn2)n2ncc(-c3ccccc3)c2n1 28.2 µM [inhibitor, partial curve]
CCOC(=O)c1sc(NCc2ccco2)c(-c2nc3ccccc3s2)c1N 14.1 µM [inhibitor, partial curve]
CCc1c(C)sc(NC(=O)c2cc(C)on2)c1C#N 39.8 µM [inhibitor, single point]
CSc1ccc(NC(=O)N2CC(C)OC(C)C2)cc1 (stereo not drawn) 7.94 µM [inhibitor, single point]
Cc1ccnc(N2CCC(C(=O)Nc3ccc4c(c3)CCC4)CC2)n1 14.1 µM [inhibitor, partial curve]
Cc1ccc(S(=O)(=O)N2CCCCC2C(=O)O)cc1 (stereo not drawn) 28.2 µM [inhibitor, partial curve]
Clc1ccc(OCCSCc2nc3ccccc3[nH]2)cc1 28.2 µM [inhibitor, single point]
CCn1c(=O)cc(SCC(=O)Nc2cccc(C)n2)c2ccccc21 28.2 µM [inhibitor, single point]
O=C(NCc1ccc2c(c1)OCO2)c1cc2c(s1)CSC2 39.8 µM [inhibitor, single point]
CN(C)S(=O)(=O)c1cccc(-c2nnc(SCCNCCO)n2-c2ccc(F)cc2)c1 14.1 µM [inhibitor, partial curve]
NC(=O)C1CCN(S(=O)(=O)c2cccc(S(=O)(=O)N3CCCCC3)c2)CC1 22.4 µM [inhibitor, single point]
CC(=O)OCC1OC(n2cnc3c(Cl)nc(Cl)nc32)C(OC(C)=O)C1OC(C)=O (stereo not drawn) 39.8 µM [inhibitor, single point]

activity, negative = inhibition, inactive:
CCOC(=O)[C@]1(C(NC(=O)OC)c2cccc(C)c2)CCCC1=O (stereo partly drawn) 6.74% [at 13.5 µM]
